# Screen size: about 150,000 compounds; about 540 (0.36%) showed an effect of 50% or more. The list shows a part of the results.
# System: Plasmodium falciparum
# Test: Primary screen in NF54 nanoGlo assay, in single point, at 2uM, 72h; a lower Z score goes with more inhibition
# Assay type: functional, Erythrocyte
# Conditions: timepoint 72 hour
Structure (SMILES),% Inhibition [%],Z score
COCCN(Cc1ccc(OC)c(OS(=O)(=O)c2ccc(F)cc2)c1)S(=O)(=O)c1ccc(C)cc1,-14,2.72
O=C(NCc1cccnc1)c1nn(-c2ccccc2)c(=O)c2ccccc12,29,-3.25
Cc1cc(O)ccc1NC(=O)Cc1ccn(-c2ccccc2)n1,1,-0.09
C[C@@H](Cc1ccccn1)N(C)C(=O)c1cc2sccc2[nH]1,-26,3.36
O=C(CCNc1ncccn1)Nc1nc(C2CC2)n[nH]1,1,-0.1
O=C(CC1CCCCC1)N1CCC(n2c(-c3ccccc3)nc3ccc(F)cc32)CC1,-4,0.45
CC1(C)CN(Cc2csc(-c3ncccn3)n2)CCO1,-5,0.78
Cc1ccc(Cn2ncc3c2NC(=O)C[C@]32C(=O)Nc3ccc(Cl)cc32)cc1,-9,1.1
O=C(Nc1ccc(NC[C@H]2CCCO2)c(F)c1)c1cc(C2CC2)[nH]n1,-11,2
Oc1ccccc1-c1nc(Oc2ccccc2Cl)c2ccccc2n1,22,-2.54
COC(=O)C12CCCC1CN(C(=O)c1cc(Cl)c[nH]1)C2 (configuration not stated),-5,0.8
COc1cccc(CNCc2ccc3nsnc3c2)c1O[C@@H](C)C(=O)O,-15,1.42
Fc1cccc(CCCn2cncn2)c1,0,-0.01
Cc1nc(N2CCC(OC3CCOCC3)CC2)nc(C)c1CC(C)C,-6,0.68
COc1ccc(C[C@H](C)N(C)S(=O)(=O)c2cnc(C)s2)cc1,-18,1.63
CN(C(=O)c1coc(COc2ccc(F)cc2Cl)n1)C1CCOCC1,-10,1.76
COc1ccc(C)cc1NC(=O)N1C[C@H](c2nc(-c3ccncc3)no2)[C@@H](C)C1,4,-0.49
CC1CN(CN2C(=O)C(=O)c3c(Br)cccc32)CC(C)O1 (configuration not stated),-6,1
COc1cc(NC(=O)N(C)Cc2ccco2)ncn1,30,-3.41
CC(C)N(CC(F)(F)F)C(=O)c1ncoc1-c1cccs1,-16,2.14
O=S1(=O)CCC[C@H](Cc2ncc(C(F)(F)F)cc2Cl)C1,4,-0.76
Cc1cnn(CC2CCCN2C2CCOC2=O)c1 (configuration not stated),-7,1.12

Structure (SMILES),% Inhibition [%],Z score
CCc1ccc(-c2c(-c3ccccc3)ncn2CCN2CCC[C@H](CO)C2)nc1,-10,2
Cc1cc[n+]2c(-c3ccccc3)cc(-c3ccccc3)nc2c1,60,-11.27
Fc1cc(Br)ccc1-c1noc(-c2cn(C[C@H]3CCOC3)nn2)n1,-6,1.22
Cc1cccnc1CN(Cc1ccccc1)C(=O)[C@H]1CC[C@H](O)CC1,-1,0.21
Cc1cc(C(=O)N2CCOCC2)nn1CC(=O)NCCc1ccccc1,-3,0.54
Cn1ncc(C(N)=O)c1NCc1cccc(C2CC2)c1,-2,0.41
CC[C@H]1CC[C@H](C(=O)NS(=O)(=O)CC(F)(F)F)CC1,-12,1.63
CC(C)c1nc(NC2CCN(c3cc(=O)[nH]c(N)n3)CC2)c2cnn(C)c2n1,-15,2.81
Cc1ccc(C(=O)N2CCO[C@H](c3nccs3)C2)cc1Oc1ccncc1,-2,0.3
O=C(NC1CCCC1)c1c(O)nc2c(c1O)CCCC2,-12,1.43
Cc1ncsc1CCN(C)Cc1ccc(O)cc1Cl,-5,0.66
Cc1nccn1CCCn1c(=O)n(CC2CC2)c2ccc(C(=O)O)cc21,-3,0.44
CCn1nc(C)c(CNC(=O)[C@@H](CC2CCC2)NC(C)=O)n1,7,-1.31
O=C(NO[C@@H]1CCCCO1)NC1CC(c2ccccc2)C1 (some centres not stated),-1,0.08
CCOc1ncccc1CNC(=O)[C@H]1CCOC(C)(C)C1,-11,1.46
C=CCn1ccc2ccn(Cc3c(C)noc3C)c(=O)c21,-24,2.11
C=C=CCNS(=O)(=O)[C@@H]1CCc2ccccc2[C@H]1OC,-13,2.44
CCNc1cc(C)nc(NCCNC(=O)COc2ccc(-n3cccn3)nn2)n1,-8,1.44
O=C(N1CCC(Cc2ccccc2)CC1)N1CCO[C@@]2(CCCOC2)C1,-4,0.8
COC1CCN(C2CN(S(=O)(=O)c3ccc(F)c(F)c3)C2)CC1,-10,1.85
CCOC(=O)[C@H](Cc1ccccc1)NC(=O)c1cccc[n+]1[O-],-11,1.37
NS(=O)(=O)c1cnn(C2CCC2)c1,-13,2.03

Structure (SMILES),% Inhibition [%],Z score
CC(Oc1ccccc1)C(=O)N1C2CCC1CC(n1ccnc1)C2 (configuration not stated),-20,2.54
C[C@@H](Cn1cncn1)C(=O)NCCc1ccncc1,-16,3.18
Cc1nnc(NC(=O)C(C)(C)S(=O)(=O)C2CC2)n1C1CC1,33,-4.8
COc1cc(OC)cc(-c2nc(-c3cn(-c4ccc(C)cc4)nn3)no2)c1,-14,2.73
N#Cc1ccc(NCCNc2cnccn2)nc1,-4,0.67
CC(C)(Oc1ccc(C#N)cc1)C(=O)N1CCCc2ccccc2C1,-15,1.29
C[C@@H](C(=O)N(C)CCc1ccccn1)n1ccnc1,-3,0.41
O=C(Nc1ccc(OCc2cccnc2)cc1)NC1CCCC1,4,-0.49
Fc1ccc2onc(C3CCN(Cc4cc5n(n4)CCNC5)CC3)c2c1,1,-0.11
CCc1noc(-c2nc(-c3ccc(C)cc3)no2)n1,-16,1.8
N#Cc1ccsc1N1CCC(NC2CCOC2C2CC2)C1=O (configuration not stated),-3,0.36
CCNS(=O)(=O)c1cc(-c2c(C)noc2NC(C)=O)ccc1OC,-4,0.59
Cc1ccc(C(=O)N(C)Cc2nc3ccccc3c(=O)[nH]2)n1C,-1,0.13
COc1ccccc1CC(C)CC(=O)N1CCC(C(=O)O)C1 (configuration not stated),-9,0.88
CN(CC1(O)CCC1)c1ncnc2sc(C(F)(F)F)nc12,13,-1.75
Oc1nnc(Cc2ccccc2Cl)c2ccccc12,-7,1
CCc1nc2n(n1)CCCC2NC(=O)C(CC)OC1CCCCC1 (configuration not stated),9,-0.91
CC(C)c1nnc2n1[C@](C)(C(=O)NCCN1CCCCC1)COC2,-11,1.28
C[C@H]1COC(C)(C)CN1C[C@@H]1CCC(=O)N1,-9,0.95
CCn1ccnc1CN1CCN(Cc2ccncc2)[C@H]2CS(=O)(=O)C[C@H]21,-3,0.46
CC(C)(C)NC(=O)CNC(=O)c1ccc(-c2ccc3ocnc3c2)cc1,-13,1.88
CCC(N)(CC)c1cn(C2CCN(C(=O)N[C@@H](C)c3ccccc3)CC2)nn1,13,-1.67

Structure (SMILES),% Inhibition [%],Z score
Cc1ccc(C(C)(C)NC(=O)c2ccnc(N3CC[C@H](C)C3)c2)cn1,-21,2.7
Cc1cc(N2CCCCCC2)n2nc(-c3ccccc3)c(C)c2n1,-13,2.51
CCC(=O)N1CCCCCCNC(=O)[C@@H]2C[C@@H](C(=O)NCCc3c[nH]c4ccccc34)C[C@@H]21,-11,2.29
COc1ccc(Cl)cc1-c1cn(CC(=O)N2CCN(C(C)=O)CC2)nn1,-14,1.77
CN(C)c1ccc(NC(=O)NC2C3CCOC3C23CCC3)nc1 (configuration not stated),-16,1.57
CN(Cc1ccccc1)C1(CNCC2CC2)Cc2ccccc2C1,-4,0.64
Cc1cccc(-n2cc(O)c(C(=O)N(CCO)C3CC3)n2)c1C,-12,1.7
O=C1CCC[C@@H](C(=O)Nc2cccc(-c3noc(C(F)F)n3)c2)N1,-7,0.87
O=C(NCCc1ccccc1)C(=O)NCc1ccc(-c2ccoc2)cc1,-16,1.82
COc1ccc(-c2cc(C(=O)N[C@@H](Cc3cc4ccccc4[nH]3)C(=O)O)c(C)o2)cc1OC,-12,1.43
Cc1nc(N2CCCC2)c2c(C)c(C(=O)N3CCCC3)sc2n1,-12,1.08
COc1ccc(C(=O)N2c3ccccc3C[C@H]2c2nc(C(C)C)no2)cn1,-10,1.28
CC(C)(C)OC(=O)NC1CCCC(NCc2ccc(C#N)o2)C1 (configuration not stated),-20,2.72
c1ccc(NC2CCCC3OCCC23)nc1 (configuration not stated),-11,1.24
Cc1cccc(NC(=O)C2CCN(c3cncnc3N3CCOCC3)CC2)c1C,-4,0.83
Cc1cc(NCCCc2ccc(O)cc2)nc(N)n1,5,-0.92
CNC(=O)c1cnn(-c2cc(-c3nc(C(C)C)no3)ccn2)c1C,-12,1.97
CCOC(=O)N1CCC(NS(=O)(=O)c2ccc(N3C(=O)CCS3(=O)=O)cc2C)CC1,6,-0.79
Cc1ccc(NC(=O)C2CCN(c3cc(-c4cccc(C)c4)ncn3)CC2)cc1,-4,0.5
C[C@H](NS(=O)(=O)c1sc2c(c1C(=O)O)CCNC2)c1cc(F)cc(F)c1,-9,0.84

# From ChEMBL document CHEMBL4888484, “Replenishing the malaria drug discovery pipeline: Screening and hit evaluation of the MMV Hit Generation Library 1 (HGL1) against asexual blood stage Plasmodium falciparum ,using a nano luciferase reporter read-out” (2022)
